≈ marks a conversion by molar mass, not a printed value. Where two headings read alike, the source gives them in different places.
Columns and labels:
[1] = system: A. baumannii 054 (OXA-51-ISAba1); experiment: microbe, parasite or virus in culture; settings: Acinetobacter baumannii
[2] = system: A. baumannii 046 (OXA-40)
[3] = system: A. baumannii 045 (OXA-58)
[4] = system: A. baumannii 047 (OXA-235)
A. baumannii 070 (NDM-1) [5] = system: A. baumannii 070 (NDM-1)
[6] = system: A. baumannii 038 (OXA-23)
[7] = system: A. baumannii 054 (OXA-51-ISAba1)
[8] = system: A. baumannii 047 (OXA-235); experiment: microbe, parasite or virus in culture; settings: Acinetobacter baumannii
[9] = system: A. baumannii 045 (OXA-58); experiment: microbe, parasite or virus in culture; settings: Acinetobacter baumannii
[10] = system: A. baumannii 038 (OXA-23); experiment: microbe, parasite or virus in culture; settings: Acinetobacter baumannii
A. baumannii 070 (NDM-1) [11] = experiment: microbe, parasite or virus in culture; settings: Acinetobacter baumannii
[12] = system: A. baumannii 046 (OXA-40); experiment: microbe, parasite or virus in culture; settings: Acinetobacter baumannii
[13] = Table S 4 antibiogram, CRAB clinical isolate 046 (OXA-40)
[14] = Table S 4 antibiogram, CRAB clinical isolate 045 (OXA-58)
[15] = Table S 4 antibiogram, CRAB clinical isolate 047 (OXA-235)
[16] = Table S 4 antibiogram, CRAB clinical isolate 070 (NDM-1)
[17] = Table S 4 antibiogram, CRAB clinical isolate 038 (OXA-23)
[18] = Table S 4 antibiogram, CRAB clinical isolate 054 (OXA-51-ISAba1)

Compound | MIC [1] | MIC [2, 13] | MIC [3, 14] | MIC [4, 15] | MIC (A. baumannii 070 (NDM-1) [5]; [16]) | MIC [6, 17] | MIC [7, 18] | MIC [9] | MIC [10] | MIC (A. baumannii 070 (NDM-1) [11]) | MIC [12] | further results
NCC[C@H](O)C(=O)N[C@@H]1C[C@H](N)[C@@H](O[C@H]2O[C@H](CN)[C@@H](O)[C@H](O)[C@H]2O)[C@H](O)[C@H]1O[C@H]1O[C@H](CO)[C@@H](O)[C@H](N)[C@H]1O [AMK, Amikacin] | 2 µg/mL (≈ 3.42 µM) | – | – | – | – | – | – | – | – | – | – | –
colistin | – | 0.5 µg/mL | 0.5 µg/mL | 0.5 µg/mL | 0.5 µg/mL | 0.5 µg/mL | 0.5 µg/mL | – | – | – | – | MIC ([2]; clinical CRAB isolate A. baumannii 046 (OXA-40), Table 3): 0.25 µg/mL; MIC ([3]; clinical CRAB isolate A. baumannii 045 (OXA-58), Table 3): 0.125 µg/mL; MIC ([4]; clinical CRAB isolate A. baumannii 047 (OXA-235), Table 3): 0.25 µg/mL; MIC (A. baumannii 070 (NDM-1) [5]; clinical CRAB isolate A. baumannii 070 (NDM-1), Table 3): 0.125 µg/mL; MIC ([6]; clinical CRAB isolate A. baumannii 038 (OXA-23), Table 3): 0.25 µg/mL; MIC ([7]; clinical CRAB isolate A. baumannii 054 (OXA-51-ISAba1), Table 3): 0.125 µg/mL
C[C@H]1COc2c(N3CCN(C)CC3)c(F)cc3c(=O)c(C(=O)O)cn1c23 [LEV, Levofloxacin] | – | – | – | – | – | – | – | 8 µg/mL (≈ 22.1 µM) | 8 µg/mL (≈ 22.1 µM) | 4 µg/mL (≈ 11.1 µM) | 8 µg/mL (≈ 22.1 µM) | MIC [8]: 8 µg/mL (≈ 22.1 µM)
NC[C@H]1O[C@H](O[C@H]2[C@H](O)[C@@H](O[C@H]3O[C@H](CO)[C@@H](O)[C@H](N)[C@H]3O)[C@H](N)C[C@@H]2N)[C@H](N)C[C@@H]1O [TOB, Tobramycin] | – | – | – | – | – | – | – | 1 µg/mL (≈ 2.14 µM) | – | – | – | –
CN(C)c1ccc(O)c2c1C[C@H]1C[C@H]3[C@H](N(C)C)C(O)=C(C(N)=O)C(=O)[C@@]3(O)C(O)=C1C2=O [MNO, Minocycline] | 1 µg/mL (≈ 2.19 µM) | – | – | – | – | – | – | 4 µg/mL (≈ 8.74 µM) | 1 µg/mL (≈ 2.19 µM) | ≤ 0.0625 µg/mL | 4 µg/mL (≈ 8.74 µM) | –
CN(C)c1cc(NC(=O)CNC(C)(C)C)c(O)c2c1C[C@H]1C[C@H]3[C@H](N(C)C)C(O)=C(C(N)=O)C(=O)[C@@]3(O)C(O)=C1C2=O [TGC, Tigecyline] | – | 1 µg/mL (≈ 1.71 µM) | 1 µg/mL (≈ 1.71 µM) | 1 µg/mL (≈ 1.71 µM) | 0.125 µg/mL (≈ 0.213 µM) | 2 µg/mL (≈ 3.41 µM) | 1 µg/mL (≈ 1.71 µM) | – | – | – | – | –
